Experimental data reported in patent US6436948B1, “Method for the treatment of psoriasis and genital warts” (priority 1995, dated 2002).

System: NCI-H322M
Settings: Non-Small Cell Lung Cancer, PG +50, 48 hours

In the case of Nc1ccn([C@@H]2CO[C@H](CO)O2)c(=O)n1 [(−)-OddC, (−)-(2S,4S)-1-(2-hydroxymethyl-1,3-dioxolan-4-yl)cytosine], the Log10GI50 is reported as greater than −4.00.
